{"source": "paper PMC4336329", "about": "(PLoS ONE, 2015)", "note": "Screen size: about 310,000 compounds; about 2,200 (0.71%) showed an effect of 50% or more. Effects have a minus sign here. Some of the results follow.", "data": [{"biological_target": "human ether-à-go-go-related gene (hERG) potassium channel (human, UniProt Q12809)", "sequence (Q12809 whole entry, looked up)": "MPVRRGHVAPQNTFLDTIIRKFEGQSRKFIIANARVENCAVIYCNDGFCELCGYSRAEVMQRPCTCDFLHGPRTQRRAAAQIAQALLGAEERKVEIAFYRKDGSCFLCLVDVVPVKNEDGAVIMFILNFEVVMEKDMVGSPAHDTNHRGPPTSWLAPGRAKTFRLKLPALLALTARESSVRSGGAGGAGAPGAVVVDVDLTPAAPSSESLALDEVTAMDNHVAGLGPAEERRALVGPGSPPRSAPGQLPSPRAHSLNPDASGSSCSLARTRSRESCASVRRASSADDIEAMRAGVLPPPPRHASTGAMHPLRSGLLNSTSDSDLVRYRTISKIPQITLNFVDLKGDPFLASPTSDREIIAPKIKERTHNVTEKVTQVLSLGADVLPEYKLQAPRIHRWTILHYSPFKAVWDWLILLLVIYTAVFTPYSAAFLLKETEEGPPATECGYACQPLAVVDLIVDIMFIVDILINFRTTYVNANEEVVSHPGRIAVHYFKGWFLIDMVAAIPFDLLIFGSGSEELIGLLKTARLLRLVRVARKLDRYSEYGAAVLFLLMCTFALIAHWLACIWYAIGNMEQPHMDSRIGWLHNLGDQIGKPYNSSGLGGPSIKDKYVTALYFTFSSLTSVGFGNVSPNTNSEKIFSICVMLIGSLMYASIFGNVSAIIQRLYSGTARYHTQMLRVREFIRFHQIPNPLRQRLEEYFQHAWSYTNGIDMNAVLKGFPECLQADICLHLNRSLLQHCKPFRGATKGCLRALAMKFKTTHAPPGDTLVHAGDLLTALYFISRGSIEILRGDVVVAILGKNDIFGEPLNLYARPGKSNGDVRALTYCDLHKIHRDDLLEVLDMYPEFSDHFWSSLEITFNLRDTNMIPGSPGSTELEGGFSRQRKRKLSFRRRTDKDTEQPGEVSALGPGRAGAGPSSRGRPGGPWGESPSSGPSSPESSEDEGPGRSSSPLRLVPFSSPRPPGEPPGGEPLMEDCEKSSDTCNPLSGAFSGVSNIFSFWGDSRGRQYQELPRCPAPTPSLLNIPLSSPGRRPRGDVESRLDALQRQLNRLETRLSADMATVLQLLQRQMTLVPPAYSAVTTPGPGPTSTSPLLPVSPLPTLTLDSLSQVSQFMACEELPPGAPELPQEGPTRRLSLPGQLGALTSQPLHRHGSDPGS", "assay": "primary screen, population patch clamp on CHO cells stably expressing hERG", "units": {"hERG current change (%, negative = inhibition) at 1uM": "%"}, "values": [{"compound": "C=CCSc1ncc(C(=O)OCC)c(N)n1", "hERG current change (%, negative = inhibition) at 1uM": 4.37}, {"compound": "COC(=O)N(c1ccccc1)P(=O)(Oc1ccccc1)Oc1ccccc1", "hERG current change (%, negative = inhibition) at 1uM": 11.1}, {"compound": "Oc1ccc(Br)cc1/C=N/Nc1ncc(-c2ccccc2)cn1", "hERG current change (%, negative = inhibition) at 1uM": 11.8}, {"compound": "O=C(CN1C(=O)c2ccccc2C1=O)OC(C(=O)c1ccc(Cl)cc1)c1ccccc1", "note": "(stereo not shown)", "hERG current change (%, negative = inhibition) at 1uM": 12}, {"compound": "CCC/C(O)=C1\\C(=O)CC(C)(C)CC1=Nc1cccc([N+](=O)[O-])c1", "hERG current change (%, negative = inhibition) at 1uM": 3.6}, {"compound": "O=C(CC1(O)C(=O)Nc2ccccc21)c1cccc(Br)c1", "note": "(stereo not shown)", "hERG current change (%, negative = inhibition) at 1uM": 11.9}, {"compound": "Oc1c(C=Nc2ccc(Cl)cn2)sc2ccccc12", "hERG current change (%, negative = inhibition) at 1uM": 6.69}, {"compound": "CCc1nnc(NS(=O)(=O)c2ccc(N=Cc3c(C)[nH]n(-c4cccc(Cl)c4)c3=O)cc2)s1", "hERG current change (%, negative = inhibition) at 1uM": 8.28}, {"compound": "COc1ccc(-c2nc(C#N)c(NCCc3ccccc3)o2)cc1OC", "hERG current change (%, negative = inhibition) at 1uM": 10.5}, {"compound": "CN1C(=O)N(CC(=O)N2CCN(c3ccccc3F)CC2)C(=O)C12CCCCC2", "hERG current change (%, negative = inhibition) at 1uM": 18.3}, {"compound": "COc1cc(S(=O)(=O)N2CCN(C(=O)c3ccccc3)CC2)c(OC)cc1Br", "hERG current change (%, negative = inhibition) at 1uM": -0.265}, {"compound": "COc1ccccc1N(Cc1ccccc1)S(=O)(=O)c1cc(C(=O)O)ccc1Cl", "hERG current change (%, negative = inhibition) at 1uM": 16.3}, {"compound": "CCn1nc(NS(=O)(=O)c2ccccc2[N+](=O)[O-])c2cc3cccc(C)c3nc21", "hERG current change (%, negative = inhibition) at 1uM": 4.35}, {"compound": "CSCCC(NC(=O)c1ccco1)C(=O)OCC(=O)Nc1sccc1C#N", "note": "(stereo not shown)", "hERG current change (%, negative = inhibition) at 1uM": 7.07}, {"compound": "Cn1c(=O)c(=O)n(C)c2cc(S(=O)(=O)NCCc3ccccc3)ccc21", "hERG current change (%, negative = inhibition) at 1uM": -15.2}, {"compound": "Cc1cccc(NC(=S)NC2CC3CCCC(C2)N3CC(C)C)c1C", "note": "(stereo not shown)", "hERG current change (%, negative = inhibition) at 1uM": 2.95}, {"compound": "CCN(CC)C(=O)CSc1nnc2c3ccccc3n(C)c2n1", "hERG current change (%, negative = inhibition) at 1uM": 9.94}, {"compound": "CC(=O)c1ccc(NC(=O)C(C)OC(=O)C2CC(=O)N(c3ccc4c(c3)OCCO4)C2)cc1", "note": "(stereo not shown)", "hERG current change (%, negative = inhibition) at 1uM": 14.3}, {"compound": "COCCCNc1nnc(Cc2ccccc2)c2ccccc12", "hERG current change (%, negative = inhibition) at 1uM": -13.1}, {"compound": "COc1ccc(-n2c(=O)c3c4c(sc3n(CC(=O)NCc3ccco3)c2=O)CCC4)c(OC)c1", "hERG current change (%, negative = inhibition) at 1uM": -6.43}, {"compound": "COc1ccc(NC(=O)Nc2sc(NS(=O)(=O)c3ccccc3)nc2C)cc1", "hERG current change (%, negative = inhibition) at 1uM": 18.3}, {"compound": "CC1(c2ccccc2)O[C@@H]2C[C@H]3[C@@H]4CCC5=CC(=O)C=C[C@]5(C)[C@@]4(F)[C@@H](O)C[C@]3(C)[C@]2(C(=O)CO)O1", "note": "(stereo partly shown)", "hERG current change (%, negative = inhibition) at 1uM": -44.6}, {"compound": "Cn1c(=O)c(-[n+]2ccccc2)c([O-])c2ccccc21", "hERG current change (%, negative = inhibition) at 1uM": 3.63}, {"compound": "COc1ccccc1C1C=C(c2ccc(Cl)cc2)Nc2nc(NS(C)(=O)=O)nn21", "note": "(stereo not shown)", "hERG current change (%, negative = inhibition) at 1uM": -2.26}, {"compound": "CC(=O)Nc1ccccc1OC(=O)N(C)C", "hERG current change (%, negative = inhibition) at 1uM": 2.5}, {"compound": "CN1C(=O)/C(=C2\\SC(=S)N(NC(=O)c3cccnc3)C2=O)c2ccccc21", "hERG current change (%, negative = inhibition) at 1uM": 3.52}, {"compound": "O=C(COC(=O)c1ccc(Br)o1)NCc1ccc(F)cc1", "hERG current change (%, negative = inhibition) at 1uM": 11.2}, {"compound": "CSc1nc(Oc2ccc(C)cc2)cc(C(F)(F)F)n1", "hERG current change (%, negative = inhibition) at 1uM": 16.9}, {"compound": "CC1(C)CC(=O)C=C(c2cc3ccccc3s2)C1", "hERG current change (%, negative = inhibition) at 1uM": 12.8}, {"compound": "COc1ccccc1NC(=O)CSc1nc(O)cc(=O)[nH]1", "hERG current change (%, negative = inhibition) at 1uM": 16.5}, {"compound": "C=CCSc1nnc(NC(=O)CSc2nnc(C)s2)s1", "hERG current change (%, negative = inhibition) at 1uM": -2.49}, {"compound": "Cc1nc(SCC(=O)O)c(C#N)c(-c2ccco2)c1C(=O)N(C)C", "hERG current change (%, negative = inhibition) at 1uM": 8.87}, {"compound": "CC(=O)COc1ccc2cc(-c3ccccc3)c(=O)oc2c1", "hERG current change (%, negative = inhibition) at 1uM": 8.41}, {"compound": "COC(=O)CC(=O)Cc1nc(N)nc(Nc2ccc(C)c(C)c2)n1", "hERG current change (%, negative = inhibition) at 1uM": -1.19}, {"compound": "O=C(CSc1nnc(Cc2ccccc2)o1)NCc1ccco1", "hERG current change (%, negative = inhibition) at 1uM": 20.2}, {"compound": "O=c1c2ccccc2nc(COc2ccccc2)n1/N=C/c1ccc(O)c(O)c1", "hERG current change (%, negative = inhibition) at 1uM": 9.04}, {"compound": "COc1ccc(S(=O)(=O)N2CCC(C(=O)NCCc3ccccc3)CC2)cc1OC", "hERG current change (%, negative = inhibition) at 1uM": -11.9}, {"compound": "Cc1ccc(S(=O)(=O)CCC(=O)OC(C)C(=O)Nc2ccc(N3CCOCC3)cc2)cc1", "note": "(stereo not shown)", "hERG current change (%, negative = inhibition) at 1uM": 8.5}, {"compound": "CCC(=O)N1N=C(c2ccccc2)CC1c1ccccc1", "note": "(stereo not shown)", "hERG current change (%, negative = inhibition) at 1uM": 10.5}, {"compound": "COc1ccc(CC(=O)Nc2cc(Cl)ccc2O)cc1", "hERG current change (%, negative = inhibition) at 1uM": 5.55}, {"compound": "CSc1cccc(N2CC(C(=O)Nc3cccc(S(=O)(=O)N4CCCC4)c3)CC2=O)c1", "note": "(stereo not shown)", "hERG current change (%, negative = inhibition) at 1uM": 3.97}, {"compound": "O=C(NCc1ccco1)c1ccc(Cn2c(=O)c3ccccc3n(Cc3cccc(Cl)c3)c2=O)cc1", "hERG current change (%, negative = inhibition) at 1uM": -8.04}, {"compound": "CC(=O)c1ccc(-c2ccc(/C=C(/Sc3n[nH]c(C)n3)C(=O)O)o2)cc1", "hERG current change (%, negative = inhibition) at 1uM": -14.1}]}]}
